# A collection of fitness landscapes (doi:10.1126/science.1257360)
# This is one part of the list.
# B1: PhoQ; a variant is named by its letters at X, in order, P23837 (parent)
# chain: MKKLLRLFFPLSLRVRFLLATAAVVLVLSLAYGMVALIGYSVSFDKTTFRLLRGESNLFYTLAKWENNKLHVELPENIDKQSPTMTLIYDENGQLLWAQRDVPWLMKMIQPDWLKSNGFHEIEADVNDTSLLLSGDHSIQQQLQEVREDDDDAEMTHSVAVNVYPATSRMPKLTIVVVDTIPVELKSSYMVWSWFIYVLSANLLLVIPLLWVAAWWSLRPIEALAKEVRELEEHNRELLNPATTRELTSLVRNLNRLLKSERERYDKYRTTLTDLTHSLKTPLXXLQXXLRSLRSEKMSVSDAEPVMLEQISRISQQIGYYLHRASMRGGTLLSRELHPVAPLLDNLTSALNKVYQRKGVNISLDISPEISFVGEQNDFVEVMGNVLDNACKYCLEFVEISARQTDEHLYIVVEDDGPGIPLSKREVIFDRGQRVDTLRPGQGVGLAVAREITEQYEGKIVAGESMLGGARMEVIFGRQHSAPKDE
# Variants of: B1
# Assay: enrichment ratio after two sorts for PhoP signalling (ratio (wild type AVST 3.29)); higher = more functional
# Conditions: with PhoP (E. coli)
row,Variant,enrichment ratio
1,IMPH,≤ 0.25
2,SASF,7.56
3,KIRD,≤ 0.25
4,DICQ,≤ 0.25
5,QVHR,≤ 0.25
6,RIDV,≤ 0.25
7,GCLR,≤ 0.25
8,LLFT,≤ 0.25
9,CSIH,≤ 0.25
10,WMSH,≤ 0.25
11,MEIS,13.8
12,YPYS,≤ 0.25
13,LIRQ,≤ 0.25
14,PQKP,≤ 0.25
15,LDIV,≤ 0.25
16,KMCF,≤ 0.25
17,WQLL,≤ 0.25
18,LIKC,≤ 0.25
19,LEEV,≤ 0.25
20,CAYI,≤ 0.25
21,GTEM,≤ 0.25
22,MMTV,≤ 0.25
23,NPEH,≤ 0.25
24,DLEC,≤ 0.25
25,QCRE,≤ 0.25
26,HSEK,≤ 0.25

row,Variant,enrichment ratio
1,GDTW,≤ 0.25
2,NGSP,≤ 0.25
3,MHQV,≤ 0.25
4,TRTK,≤ 0.25
5,AHKW,≤ 0.25
6,RCAN,≤ 0.25
7,FRVH,≤ 0.25
8,PIRC,≤ 0.25
9,KVFV,≤ 0.25
10,EVPR,≤ 0.25
11,KMQS,≤ 0.25
12,YHVM,≤ 0.25
13,LVRF,≤ 0.25
14,SRSY,≤ 0.25
15,PLTT,≤ 0.25
16,LPCK,≤ 0.25
17,HQRK,≤ 0.25
18,GVLM,9.19
19,FYSQ,≤ 0.25
20,IRFD,≤ 0.25
21,YGNH,≤ 0.25
22,LARD,≤ 0.25
23,ALAN,1.92
24,QPVI,≤ 0.25
25,PPGC,≤ 0.25
26,TYMN,0.285

row,Variant,enrichment ratio
1,VIKG,≤ 0.25
2,HSNY,≤ 0.25
3,QWSL,≤ 0.25
4,VPDY,≤ 0.25
5,SLEQ,≤ 0.25
6,VHKY,≤ 0.25
7,PFTT,≤ 0.25
8,SPNY,≤ 0.25
9,ITME,≤ 0.25
10,TMAF,5.19
11,WAYE,≤ 0.25
12,IVWP,≤ 0.25
13,MSHS,≤ 0.25
14,HNCK,≤ 0.25
15,GYMK,≤ 0.25
16,KYKF,≤ 0.25
17,LSGS,≤ 0.25
18,RCHD,≤ 0.25
19,YTSL,≤ 0.25
20,DEPR,≤ 0.25
21,MSPY,≤ 0.25
22,MCKR,≤ 0.25
23,DYKL,≤ 0.25
24,WNTV,≤ 0.25
25,DRDM,1.77
26,GMIW,≤ 0.25

row,Variant,enrichment ratio
1,AFYL,≤ 0.25
2,TGCD,0.285
3,FPRP,≤ 0.25
4,MFWM,≤ 0.25
5,WQFL,≤ 0.25
6,QPWN,≤ 0.25
7,RNNE,≤ 0.25
8,WRDS,≤ 0.25
9,YVVY,≤ 0.25
10,ETKI,≤ 0.25
11,HVLN,≤ 0.25
12,EFLM,≤ 0.25
13,VPTV,≤ 0.25
14,MHIQ,≤ 0.25
15,WCIY,≤ 0.25
16,KIWR,≤ 0.25
17,YNKT,≤ 0.25
18,VFIM,≤ 0.25
19,DKEY,≤ 0.25
20,HHGG,≤ 0.25
21,YMAM,≤ 0.25
22,PWHI,≤ 0.25
23,EGTG,≤ 0.25
24,TPGN,≤ 0.25
25,HQAV,≤ 0.25
26,RGIV,≤ 0.25

row,Variant,enrichment ratio
1,GGTG,≤ 0.25
2,YIYS,≤ 0.25
3,SDNT,≤ 0.25
4,WGDP,≤ 0.25
5,DWDV,≤ 0.25
6,EYFA,≤ 0.25
7,FYVE,≤ 0.25
8,IEWA,≤ 0.25
9,NLNI,≤ 0.25
10,FVNR,≤ 0.25
11,IESC,≤ 0.25
12,EHIR,≤ 0.25
13,VIWN,≤ 0.25
14,RSQD,≤ 0.25
15,HDWI,≤ 0.25
16,TPNM,≤ 0.25
17,TSKP,≤ 0.25
18,YDPY,≤ 0.25
19,LMAT,≤ 0.25
20,DYAA,≤ 0.25
21,EAIG,≤ 0.25
22,HRSQ,≤ 0.25
23,YRLW,≤ 0.25
24,VCWK,≤ 0.25
25,WEFV,≤ 0.25
26,MMER,≤ 0.25

row,Variant,enrichment ratio
1,RHSA,≤ 0.25
2,SHVL,2.8
3,NSAS,≤ 0.25
4,LGWS,≤ 0.25
5,SCHT,≤ 0.25
6,MGGR,≤ 0.25
7,MDMW,≤ 0.25
8,YNND,≤ 0.25
9,TNFG,≤ 0.25
10,HYQW,≤ 0.25
11,LNAF,≤ 0.25
12,LSLK,≤ 0.25
13,MAYH,3.4
14,HNAR,≤ 0.25
15,PSDS,≤ 0.25
16,EVMH,≤ 0.25
17,ARAF,≤ 0.25
18,ICFL,≤ 0.25
19,SYTS,≤ 0.25
20,GVIV,≤ 0.25
21,WGER,≤ 0.25
22,FVLI,2.52
23,NYMH,≤ 0.25
